Laboratory results as given in PubChem BioAssay AID360 (National Center for Advancing Translational Sciences (NCATS), 2006).
Screen size: about 48,000 compounds; about 550 (1.1%) were called active. Another 4% or so got no clear call; they are omitted. No stated cut-off is given here; in the data, active means potency below about 15 µM; inconclusive means mostly about 16 µM to 33 µM; inactive means weaker than that. The list shows a part of the results.

target: Lysosomal acid glucosylceramidase (Homo sapiens) (UniProt P04062); test: Glucocerebrosidase; details: purified enzyme, resorufin glucoside fluorescence (screen aimed at inhibitors), 20 min; series mostly up to 77 µM;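 further: the screen sought inhibitors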
UniProt P04062, sequence (P04062 whole entry, looked up): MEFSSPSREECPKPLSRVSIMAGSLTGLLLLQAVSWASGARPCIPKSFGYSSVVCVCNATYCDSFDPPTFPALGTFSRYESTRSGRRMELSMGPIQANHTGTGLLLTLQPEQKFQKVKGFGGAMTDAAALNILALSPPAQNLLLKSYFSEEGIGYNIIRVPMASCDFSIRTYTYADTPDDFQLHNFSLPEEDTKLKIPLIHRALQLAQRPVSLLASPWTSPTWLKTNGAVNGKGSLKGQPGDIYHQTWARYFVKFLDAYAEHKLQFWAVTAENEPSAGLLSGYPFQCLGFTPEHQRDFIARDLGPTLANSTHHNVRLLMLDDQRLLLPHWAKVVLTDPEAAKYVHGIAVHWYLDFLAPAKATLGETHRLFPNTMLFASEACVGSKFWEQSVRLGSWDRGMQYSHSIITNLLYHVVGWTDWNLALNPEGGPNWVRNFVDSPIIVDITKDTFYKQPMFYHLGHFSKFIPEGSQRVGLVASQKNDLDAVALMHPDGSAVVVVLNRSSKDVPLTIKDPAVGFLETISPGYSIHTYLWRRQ
How it was run: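 Normal human glucocerebrosidase (0.2 nM final) was assayed with resorufin β-D-glucopyranoside (30 uM final) in 50mM citric acid/KH2PO4, 10mM sodium taurocholate, 0.01% tween-20, pH 5.9. Compounds were titrated; fluorescence (Ex 548, Em 600) read after 20 min at RT.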
Potency means the concentration at half of the fitted maximal effect.

Potency, inactive:
CCOc1ccccc1-n1c(SCC(N)=O)nnc1-c1ccccc1 > 76.9 µM
N#Cc1cccc(NC(=O)c2nc(-c3ccccc3)n(-c3ccccc3)n2)c1 > 76.9 µM
CC1(C)CC(=O)c2cc(OCC(=O)N3CCN(c4ccccc4F)CC3)ccc2O1 > 76.9 µM
CCC(=O)N1CCc2cc(Br)cc(S(=O)(=O)CCC(=O)NCC3CCCO3)c21 (stereo unspecified) > 76.9 µM
Cc1ccc(-c2noc(CN(C(=O)c3cccs3)C(C)C)n2)cc1 > 76.9 µM
Cc1cc(NC(=O)c2ccc(S(=O)(=O)N(C)C)cc2)no1 > 76.9 µM
CCOc1ccc(C(=O)Nc2ccc3c(c2)OCO3)cc1OCC > 76.9 µM
CCOC(=O)c1c(C)[nH]c(C(=O)CSc2nc3ccccc3o2)c1C > 76.9 µM
O=C(Cc1c(C(=O)O)[nH]c2ccccc12)Nc1ccc2c(c1)OCO2 > 76.9 µM
CCOC(=O)C(NCCCO)c1ccccc1 (stereo unspecified) > 76.9 µM
CCOC(=O)C1=C(N)n2c(s/c(=C\c3cccnc3)c2=O)=C(C(=O)OCC)C1c1cccnc1 (stereo unspecified) > 76.9 µM
Cn1c(CN2CCCCC2)c(C#N)c2ccccc21 > 76.9 µM
CCOC(=O)c1[nH]c(C)c(C(=O)Nc2cc(Cl)ccc2C)c1C > 76.9 µM
Cc1cc(C(=O)OCC(=O)Nc2ccc(S(=O)(=O)N3CCOCC3)cc2)c(C)o1 > 76.9 µM
CCC(=O)Nc1nnc(CSCc2ccccc2)s1 > 76.9 µM
N#Cc1c(N2C(=O)C3C4C=CC(C4)C3C2=O)sc2c1CCC2 (stereo unspecified) > 76.9 µM
CCN(CC)S(=O)(=O)c1ccc(N2CCCC2)c(C(=O)OCC(=O)/C(C#N)=C(\C)N)c1 > 76.9 µM
COCCn1c(SCC(=O)c2ccc(F)cc2)nnc1C(C)C > 76.9 µM
COc1ccc(S(=O)(=O)N[C@H](C(=O)N2CC[C@@]3(O)CCCC[C@H]3C2)c2ccccc2)cc1 > 76.9 µM
CC1CCCCC1NC(=O)CSc1nncs1 (stereo unspecified) > 76.9 µM
CN(C(=O)C1CCOC1)c1nnc(-c2ccccn2)s1 (stereo unspecified) > 76.9 µM
COc1cc(C2c3c(oc4ccc(Cl)cc4c3=O)C(=O)N2Cc2ccco2)cc(OC)c1OC (stereo unspecified) > 76.9 µM
CCOC(=O)c1sc2ncnc(N3CCN(C(=O)OCC)CC3)c2c1C > 76.9 µM
Cc1ccc(C(=O)NCc2ccc(Cl)cc2)o1 > 76.9 µM
COc1ccc(OC)c(NC(=O)CSc2ncccc2C(=O)O)c1 > 76.9 µM
CCOc1ccc(N2CC(C(=O)NCCCN3CCOCC3)CC2=O)cc1 (stereo unspecified) > 76.9 µM
O=C(c1ccco1)n1nc(NCc2ccccc2)nc1NCc1ccccc1
CC(C)(C)Oc1ncc(Br)c(OC(C)(C)C)n1 > 76.9 µM
CC(C)Cc1nc(S(=O)(=O)c2ccc(Cl)cc2)c(N2CCOCC2)o1 > 76.9 µM
Cc1nc(N2CCN(Cc3nc4ccccc4[nH]3)CC2)c2oc3ccccc3c2n1 > 76.9 µM
COc1ccccc1-n1c(SCC(=O)O)nnc1-c1ccc(S(=O)(=O)N2CCCCC2)cc1 > 76.9 µM
CCn1c(SCc2ccccc2)nnc1-c1cccs1 > 76.9 µM
COc1cc(C2CC(=O)N3CN(c4ccccc4C)CSC3=C2C#N)cc(OC)c1OC (stereo unspecified)
COc1ccccc1Nc1nc(N)nc(CSc2nc(C)cc(C)n2)n1 > 76.9 µM
CCOC(=O)C1=C(CC)Nc2ccccc2N=C1NC(=O)Cn1cnc2ccccc2c1=O > 76.9 µM
Cc1cc(C(=O)Nc2cccc(C(=O)O)c2)oc1C > 76.9 µM
Cc1nn(C)cc1CNC(=O)c1ccccc1Br > 76.9 µM
Cc1cccc2cc(CN(Cc3ccc(F)cc3)C(=O)N(C)C)c3nnnn3c12 > 76.9 µM
O=C(c1ccccc1)c1ccc(OC(=O)N2CCCC2)cc1 > 76.9 µM
Cc1nc2ccc(S(=O)(=O)NCC(=O)N3CCOCC3)cc2s1 > 76.9 µM
CCC1CCCCN1S(=O)(=O)c1ccc(C(=O)Nc2nnc(-c3ccccc3Cl)o2)cc1 (stereo unspecified) > 76.9 µM
CC(=O)c1cccc(S(=O)(=O)N(Cc2cc3cc4c(cc3[nH]c2=O)OCCO4)CC2CCCO2)c1 (stereo unspecified) > 76.9 µM
O=C(c1ccccc1)c1cccn1CC(=O)N1CCN(C2CCCCC2)CC1 > 76.9 µM
CCOC(=O)C1=C(C)NC(SCC(=O)OC)=C(C#N)C1c1ccc(C(=O)OC)cc1 (stereo unspecified) > 76.9 µM
CC1CCCC(C)N1S(=O)(=O)c1ccc(NC(=O)c2ccccc2C(=O)N2CCOCC2)cc1 (stereo unspecified) > 76.9 µM
CC(NC(=O)c1cccs1)C(c1cccs1)N1CCOCC1 (stereo unspecified) > 76.9 µM
Nc1nc(Nc2ccc(Cl)cc2Cl)nc(C(F)(F)F)n1 > 76.9 µM
COc1ccc2[nH]cc(C(=O)CN3CCCCC3)c2c1 > 76.9 µM
O=C(NC12CC3CC(CC(C3)C1)C2)N1CCC(O)CC1 > 76.9 µM
COc1ccc(N2CCN(c3ccc(NC(=O)c4ccc5c(c4)OCO5)cc3C#N)CC2)cc1 > 76.9 µM
CCCc1noc2c1C(c1ccoc1)C(C#N)=C(N)N2 (stereo unspecified) > 76.9 µM
Cc1cccc(-n2nnc(C(=O)NCc3ccco3)c2N)c1 > 76.9 µM
CCOC(=O)c1sc(NC(NC(=O)c2ccco2)(C(=O)OC)C(F)(F)F)nc1C (stereo unspecified) > 76.9 µM
COc1ccccc1OCc1ccc(C(=O)NCc2ccco2)o1 > 76.9 µM
CC1(C)NC(=O)N(CC(O)CN2C(=O)NC(C)(C)C2=O)C1=O > 76.9 µM
CCN(CC)CCCN1C(=O)C(=O)/C(=C(/O)c2ccc3c(c2)OCO3)C1c1ccccn1 (stereo unspecified) > 76.9 µM
